Reference: publication PMC4336329 (PLoS ONE, 2015)
The campaign covered roughly 310,000 compounds. About 14,000 (4.5%) showed an effect of 50% or more. Effects have a minus sign here. The list shows a part of the results.

Biological target: human ether-à-go-go-related gene (hERG) potassium channel (human, UniProt Q12809)
Test: primary screen, population patch clamp on CHO cells stably expressing hERG
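Further: peak tail current of the secondary pulse compared with the same well before compound.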

Sequence of human ether-à-go-go-related gene (hERG) potassium channel (Q12809 whole entry, looked up): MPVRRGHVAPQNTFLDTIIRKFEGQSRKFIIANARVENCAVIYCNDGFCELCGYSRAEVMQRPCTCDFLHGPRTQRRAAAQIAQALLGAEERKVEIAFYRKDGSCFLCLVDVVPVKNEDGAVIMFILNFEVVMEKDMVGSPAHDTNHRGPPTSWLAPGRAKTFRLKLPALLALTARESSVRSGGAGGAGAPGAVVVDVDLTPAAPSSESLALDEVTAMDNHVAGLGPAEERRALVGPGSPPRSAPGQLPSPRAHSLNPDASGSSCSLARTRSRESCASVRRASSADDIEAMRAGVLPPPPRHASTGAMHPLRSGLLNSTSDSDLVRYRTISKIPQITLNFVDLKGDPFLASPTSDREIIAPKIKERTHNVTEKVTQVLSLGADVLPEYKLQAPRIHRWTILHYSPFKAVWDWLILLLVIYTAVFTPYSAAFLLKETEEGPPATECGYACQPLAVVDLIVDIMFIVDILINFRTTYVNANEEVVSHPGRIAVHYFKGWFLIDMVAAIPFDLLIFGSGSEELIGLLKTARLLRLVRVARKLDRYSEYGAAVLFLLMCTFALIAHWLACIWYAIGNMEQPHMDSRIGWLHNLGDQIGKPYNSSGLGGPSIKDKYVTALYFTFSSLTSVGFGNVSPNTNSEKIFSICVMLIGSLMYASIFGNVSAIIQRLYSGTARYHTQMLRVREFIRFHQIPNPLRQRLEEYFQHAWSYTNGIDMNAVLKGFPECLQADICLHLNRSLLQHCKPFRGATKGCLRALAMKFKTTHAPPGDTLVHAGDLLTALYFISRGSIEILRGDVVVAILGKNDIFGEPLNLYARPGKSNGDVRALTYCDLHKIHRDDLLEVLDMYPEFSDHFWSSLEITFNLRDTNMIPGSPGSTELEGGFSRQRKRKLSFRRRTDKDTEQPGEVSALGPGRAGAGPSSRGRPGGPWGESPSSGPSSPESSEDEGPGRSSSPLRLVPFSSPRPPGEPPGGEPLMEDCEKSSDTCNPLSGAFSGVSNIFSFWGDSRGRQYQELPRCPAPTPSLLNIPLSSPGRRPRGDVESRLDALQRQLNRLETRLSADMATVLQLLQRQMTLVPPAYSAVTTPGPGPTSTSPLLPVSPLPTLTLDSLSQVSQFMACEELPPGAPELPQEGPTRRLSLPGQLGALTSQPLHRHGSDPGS

| Compound | hERG current change (%, negative = inhibition) at 10uM |
| --- | --- |
| COc1cccc(C(=O)/C=C/c2ccc(OCC#N)c(OC)c2)c1 | -21.8% |
| CSc1nnc(C(C)(C)C)c(=O)n1/N=C/c1c(O)ccc2ccccc12 | 9.57% |
| CC1CC(=O)Nc2ccccc2N1C(=O)COc1cc(Cl)ccc1Cl (centres unmarked) | -1.31% |
| OC(c1nc2ccccc2[nH]1)C(O)C(O)C(O)c1nc2ccccc2[nH]1 (centres unmarked) | 10.5% |
| Cc1cc(C)n2nc(CC(=O)NC3CCCCCCC3)nc2n1 | -70.9% |
| CN(C)S(=O)(=O)c1cccc(NC(=S)NC(=O)C2CCCCC2)c1 | -10.6% |
| Cc1ccc(C)c(N2CN(Cc3ccco3)CNC2=S)c1 | 3% |
| O=C(CN1C(=O)c2ccccc2S1(=O)=O)NCCSCc1ccccc1Cl | -4.19% |
| Cc1ccccc1OCC(=O)N/N=C/c1cccc2cccnc12 | -1.48% |
| O=C1CC(c2cccnc2)c2cc3c(cc2N1)OCO3 (centres unmarked) | 44% |
| Cc1cc(C)cc(NC(=O)c2c(C)nc3ccccn23)c1 | 8.9% |
| O=c1oc2ccccc2c(NCCO)c1[N+](=O)[O-] | 16.5% |
| CCN(CC)CCOC(=O)c1ccc(NC(=O)COc2cc(=O)n(CC)c3ccccc23)cc1 | -2.13% |
| COc1ccc(S(=O)(=O)N2CCCC2)cc1OC | 14.9% |
| Cc1ccc2c(c1)C1CN(C)CCC1N2S(=O)(=O)c1ccccc1 (centres unmarked) | -32.4% |
| CCCNC(=O)COC(=O)C1CCN(S(=O)(=O)c2ccc3c(c2)OCCO3)CC1 | 7.17% |
| COc1ccccc1-n1c(CNC(=O)c2ccco2)n[nH]c1=S | 25% |
| O=C(CSc1nnc(-c2ccccc2)c(-c2ccccc2)n1)N1CCc2ccccc21 | 6.08% |
| CCn1c(SCC(=O)c2ccccc2)nnc1-c1cccs1 | -14.8% |
| Cc1ccccc1C(=O)NCC(C)NC(=O)c1ccccc1C (centres unmarked) | 9.27% |
| CN(CCOc1ccc(Cl)cc1)C(=O)c1cc(S(=O)(=O)N2CCOCC2)ccc1N1CCCC1 | -63.7% |
| O=C(Cc1ccc(Cl)cc1)NNC1CC(=O)N(c2ccc3ccccc3c2)C1=O (centres unmarked) | 3.98% |
| Cc1cc(Br)ccc1NC(=O)CNC(=O)c1cnn(C)c1 | 19.6% |

| Compound | hERG current change (%, negative = inhibition) at 10uM |
| --- | --- |
| Cc1ccc(S(=O)(=O)N2CCCCC2)cc1 | 34.5% |
| CC(C)(C)OC(=O)c1c(N)n(CCCN2CCCC2=O)c2nc3ccccc3nc12 | -18.4% |
| CC(=O)Nc1ccc(S(=O)(=O)Nc2ccc3c(c2)OCCO3)cc1Cl | 15.5% |
| O=[N+]([O-])c1ccccc1/C=N/NC1=NCCN1 | 7.6% |
| COc1cc(Cl)c(C)cc1NC(=O)CSc1nnc(-c2cccnc2)n1Cc1ccco1 | -56.9% |
| C/C(=N/NC(=O)c1ccc(C)s1)c1cccc(NC(=O)c2ccoc2C)c1 | -10.2% |
| [O-][n+]1c2ccccc2cc2ccccc21 | 4.02% |
| CCCCC(=O)Nc1nc(C)c(-c2csc(Nc3ccc(Cl)cc3)n2)s1 | -7.01% |
| Cc1cccc(NS(=O)(=O)c2cccc(C(=O)NCC(c3ccco3)N3CCCCC3)c2)c1 (centres unmarked) | -27.9% |
| CC1Cc2nc(SCC(=O)Nc3ccccc3F)n(C)c(=O)c2S1 (centres unmarked) | -20.2% |
| CC1CCCN(C(=O)CN2CCC(c3nc4ccc(Cl)cc4[nH]3)CC2)C1 (centres unmarked) | -67.8% |
| CCn1cc(/C=C(\NC(=O)c2ccccc2OC)C(=O)N2CCN(C)CC2)c2ccccc21 | 0.113% |
| Cc1cc(NC(=O)COc2ccccc2)n(-c2ccccc2)n1 | -22.7% |
| CC(=O)OC(C)C(=O)NS(=O)(=O)c1ccc(C)cc1 (centres unmarked) | 12.3% |
| COC(c1ccccc1)(c1ccccc1)C(Oc1nccc(C)n1)C(=O)O (centres unmarked) | 23.2% |
| COc1ccc(/C(C)=N/N=C2/NC(=O)CC(C(=O)O)S2)cc1F (centres unmarked) | 21% |
| Cc1c(C(=O)N2CCCCC2)c(S(=O)(=O)N2c3ccccc3CC2C)c(C)n1C (centres unmarked) | -9.7% |
| O=C(CSc1nnc(Cn2nnc3ccccc32)o1)Nc1ccc(Cl)cc1 | 11.2% |
| COc1cc(NC(=O)CN2c3cccc4cccc(c34)S2(=O)=O)cc(OC)c1OC | 7% |
| Cc1ccc(Cn2cc(SCC(=O)Nc3nccs3)c3ccccc32)cc1 | 7.21% |
| Nc1cc(=O)[nH]c(SCC(=O)Nc2ccc(S(=O)(=O)N3CCCCC3)cc2)n1 | 12.6% |
| CCn1nc(NC(=O)CC(C)C)c2cc3cccc(C)c3nc21 | 15.2% |
| Cc1ccc(NC(=O)c2cc(S(=O)(=O)c3ccccc3)ccc2Cl)cc1 | -15.4% |

| Compound | hERG current change (%, negative = inhibition) at 10uM |
| --- | --- |
| O=C(NC1CCSC1=O)c1ccc(Oc2ccc(F)cc2)nc1 (centres unmarked) | 11.8% |
| CCCNC(=O)CSc1ccc(S(=O)(=O)N2CCCC2)cn1 | 6.44% |
| Cc1ccccc1CN(c1ccc(C(=O)N/N=C/c2ccc(OCC(N)=O)cc2)cc1)S(C)(=O)=O | 5.85% |
| Cn1c(=O)c2c(-c3ccc(C(C)(C)C)cc3)n(CC3CCCO3)cc2n(C)c1=O (centres unmarked) | -7.98% |
| N#CC1=C(S)N(c2ccccc2)C2(CCCCC2)NC1=O | 4.38% |
| C/C(CCC(C)C)=N\NC(=S)NCc1ccccc1 | -17% |
| O=C(O)c1nc2nc(Cl)c(Cl)nc2[nH]1 | 21.5% |
| COc1ccc2cc(-c3ccccc3)c(=O)oc2c1 | 18% |
| C=CCSC1=C(C#N)C(c2ccccc2Cl)CC(=O)N1 (centres unmarked) | -3.4% |
| CCN(CC)c1cnn(C/C(=N\OC)c2ccc(Cl)cc2)c(=O)c1Br | -34.4% |
| CCOC(=O)Cn1c(=O)oc2cc(S(=O)(=O)Nc3cc(Cl)ccc3OC)ccc21 | -0.0761% |
| Nc1ccccc1SCC(=O)Nc1cccc2ccccc12 | 11.1% |
| COc1cc(Cl)c(C)cc1NC(=O)CCNC(=O)c1ccco1 | 9.27% |
| COC1=CC(=O)C(O)=C(CCCCCCC/C=C/CCCCCCCC2=C(O)C(=O)C=C(OC)C2=O)C1=O | -3% |
| O=C(O)c1ccccc1/C=N/NC(=S)NC1CCCCC1 | 11.4% |
| COc1ccc(-c2cc(C(F)F)n3ncc(C(=O)N4CCc5ccccc54)c3n2)cc1 | 5.39% |
| Nc1cccn2c(-c3ccc(Cl)c(Cl)c3)cnc12 | 1.82% |
| COc1ccc(C2(C#N)CCN(C)CC2)cc1.Cl | -18.6% |
| COc1ccccc1CNC(=O)c1oc2ccccc2c1C | -13.1% |
| O=C(/C=C/c1ccc(F)cc1)NCCCN1CCN(CCCNC(=O)/C=C/c2ccc(F)cc2)CC1 | -73.2% |
| O=C(Nc1ccccc1NC(=O)C1CCCO1)c1ccco1 (centres unmarked) | -5.46% |
| C=CCn1ccc2c([N+](=O)[O-])cccc2c1=O | -32.2% |
| COC(=O)CC1=C(C(=O)OC)C(c2cccc(OCC(N)=O)c2)C(C#N)=C(N)O1 (centres unmarked) | 7.33% |

| Compound | hERG current change (%, negative = inhibition) at 10uM |
| --- | --- |
| O=C(NC(=S)Nc1cccc(Cl)c1N1CCOCC1)c1cccs1 | 27.3% |
| COc1ccc(S(=O)(=O)N2CCCC2)cc1C(=O)N1CCCCC1 | 16.9% |
| Cc1cc(C)cc(-n2ncc3c2CCCC3NC(=O)CCN2Cc3ccccc3C2=O)c1 (centres unmarked) | -54.3% |
| COc1ccccc1S(=O)(=O)NCc1ccc(C(=O)NC(C)c2ccccn2)cc1 (centres unmarked) | 15.5% |
| CN1CCCN(S(=O)(=O)c2ccc3c(c2)OCCO3)CC1 | 8.07% |
| O=C(CCl)NNC(=O)c1c(O)c2ccccc2[nH]c1=O | 8.53% |
| CC(C)C(C)NC(=O)Cn1cnc2c(oc3ccccc32)c1=O (centres unmarked) | -9.02% |
| COc1ccc(Br)cc1C(=O)NC(=S)Nc1ccc(CN2CCOCC2)cc1 | 7.79% |
| Cc1cc(SCC(=O)N/N=C/c2ccccc2C(=O)O)c(C)cc1Br | 12.7% |
| C=CCOC(=O)C1=C(C)NC(=O)NC1c1cn(-c2ccccc2)nc1-c1cccs1 (centres unmarked) | -4.51% |
| O=[N+]([O-])c1ccccc1N/N=C1\CCc2ccccc21 | 9.66% |
| C(#Cc1ccccc1)CN1CCCCC1.Cl | 0.475% |
| CCOc1ccc(-c2n[nH]c(C)c2Oc2ccc(OC)cc2)c(O)c1 | -6.31% |
| O=C(CSc1nc(Nc2ccccc2)nc(N2CCOCC2)n1)Nc1ccc([N+](=O)[O-])cc1 | 9.65% |
| CCOC(=O)Cn1c(=O)c2c(nc3n2CCS3)n(C)c1=O | 9.98% |
| CC(=O)Nc1cccc(/C(C)=N/N2C(C)CCCC2C)c1 (centres unmarked) | 15.6% |
| COc1ccc(N2CCN(C(=O)COC(=O)c3ccc(C)o3)CC2)cc1 | 2.97% |
| COc1cc(/C=C/C(=O)N2CCCN(C(=O)/C=C/c3cc(OC)c(OC)c(OC)c3)CC2)cc(OC)c1OC | -0.809% |
| O=C(NCc1cccnc1)C1c2ccccc2C(=O)N1Cc1ccco1 (centres unmarked) | -8.33% |
| O=C(O)c1ccccc1Cc1nc2cc(Cl)ccc2c(=O)[nH]1 | 18.8% |
